From ChEMBL document CHEMBL4888484, “Replenishing the malaria drug discovery pipeline: Screening and hit evaluation of the MMV Hit Generation Library 1 (HGL1) against asexual blood stage Plasmodium falciparum ,using a nano luciferase reporter read-out” (2022) come the findings set out here.

The structures appear in SMILES notation. Among all 150,000 compounds or so, about 540 (0.36%) showed an effect of 50% or more. The list shows a part of the results.

The subject of this test is Plasmodium falciparum. As to the kind of experiment: Primary screen in NF54 nanoGlo assay, in single point, at 2uM, 72h; a lower Z score goes with more inhibition. The class given is functional, Erythrocyte. Conditions: timepoint 72 hour.
In the case of `Cc1sc2ccccc2c1-c1ccn(CC(=O)Nc2cnn(C)n2)n1`, the % Inhibition – broadly, the drop in the measured response relative to a control, in per cent – is -5% and the Z score stood at 0.79.

Turning to `COc1ccc(NC(=O)COc2c(C)[nH]ccc2=O)c(OC)c1`, the “% Inhibition” value is reported as 2% and the Z score is -0.3.

As to `CCc1ccc(OCC(=O)c2ccc3c(c2)N(Cc2ccc(C(=O)N[C@@H](C)CC)o2)C(=O)CO3)cc1`, the “% Inhibition” value came out at 1% and the Z score is given as -0.12.

Regarding `Cc1ccc(NCc2c(F)cncc2F)c(OC[C@H]2CCCO2)c1`, the “% Inhibition” value is given as -6% and the Z score came to 0.95.

Consider `COc1c(C)cc(C(=O)[C@H]2CCCN(C(=O)Cn3ccc(C)n3)C2)cc1C`, for which the “% Inhibition” value is reported as -1% and the Z score amounted to 0.16.

Consider `CCOCC(=O)N1CCC[C@@]2(CCC(=O)N(CCc3c[nH]cn3)C2)C1`, for which the “% Inhibition” value was -5% and the Z score is given as 0.93.

For the compound `Cc1cc(C)cc(NC(=O)[C@@H]2CCCN2S(=O)(=O)c2cc3c(cc2C)NC(=O)CO3)c1`, the “% Inhibition” value is given as 1% and the Z score was -0.1.

`O=C(Cn1ncn2nc(-c3ccccc3)cc2c1=O)N1CCCCC1`: the “% Inhibition” value is listed as -20% and the Z score amounted to 1.75.

With `CCc1nc(C[C@H]2CN(C(=O)Nc3ccc4c(c3)CCC4)CCO2)no1`, the “% Inhibition” value is reported as -3% and the Z score stood at 0.41.

As to `Cc1cc(C(=O)NC[C@H](O)c2ccnn2C)ccc1N1CCOCC1`, the “% Inhibition” value is on record as -12% and the Z score is given as 1.55.

Regarding `Cc1nn(C(C)(C)C)cc1C(=O)NCCn1cnnc1C(C)C`, the “% Inhibition” value is given as -2% and the Z score turned out to be 0.26.

Consider `CC1CC(=O)CCC1c1nc(C2COCCN2C(=O)OC(C)(C)C)no1` (stereo unspecified), for which the “% Inhibition” value is listed as -5% and the Z score is 0.62.

Take `O=S(=O)(c1ccc(F)cc1)N1CCc2nc(N3CCCC3)nc(Oc3ccc(F)c(F)c3)c2C1`: the “% Inhibition” value was -8% and the Z score came out at 0.88.

As for `C[C@@H](c1nc2cc(Cl)ccc2[nH]1)N(C)S(=O)(=O)N1CCC1`, the “% Inhibition” value worked out at 6% and the Z score is -0.72.

For `Nc1ncnc(N[C@H](c2nccs2)C2CC2)c1Cl`, the “% Inhibition” value is reported as 5% and the Z score was -0.68.

Take `CCc1nn2c(C)c(C(=O)N3CCOCC3)nnc2c1-c1ccccc1`: the “% Inhibition” value was -13% and the Z score was 1.41.

Consider `O=C1CCCCN1CC(=O)N1CCO[C@H](c2ccccc2)C1`, for which the “% Inhibition” value is -13% and the Z score is 2.53.

As to `C[C@H]1Cc2cc(C(=O)NC(C)(C)c3nnc(N)s3)ccc2O1`, the “% Inhibition” value is given as -5% and the Z score is 0.69.

`N#Cc1c(O)nc(N)c2c1C(c1ccc(Cl)cc1)=NC2=O`: the “% Inhibition” value is -6% and the Z score was 0.93.

As for `O=C(Nc1ccc(S(=O)(=O)Nc2nccs2)cc1)c1cccc2ccccc12`, the “% Inhibition” value is reported as -2% and the Z score was 0.43.

Take `O=C(c1cccnc1)N(CCN1CCCC1)C1CCOCC1`: the “% Inhibition” value is recorded as -1% and the Z score is recorded as 0.12.

For `Cc1cnn(Cc2noc3c2CCCC3)c1`, the “% Inhibition” value worked out at 5% and the Z score is given as -0.64.

Consider `Cc1ccc(Cl)cc1NC(=O)Cn1nc2c(Oc3cccc(C)c3C)nccn2c1=O`, for which the “% Inhibition” value was -15% and the Z score is 2.33.

Take `Cc1ccc(F)cc1NC(=O)Cn1nc2c(Oc3ccccc3C)nccn2c1=O`: the “% Inhibition” value is recorded as -12% and the Z score was determined as 1.13.

As for `COc1ccc(NC(=O)N2CCC[C@H]2c2cccs2)cn1`, the “% Inhibition” value came to 3% and the Z score is given as -0.48.

As to `CCc1c(C(=O)N2CC(CF)C2)ccn1C`, the “% Inhibition” value was -12% and the Z score is given as 1.22.

In the case of `O=C(NCc1nc(C2CCCCC2)cs1)c1ccco1`, the “% Inhibition” value is given as -3% and the Z score was 0.5.

Regarding `CC1CCCCC1N1CCN(Cc2ccncc2)CC1` (stereo unspecified), the “% Inhibition” value is -13% and the Z score was determined as 1.69.

Turning to `CCCc1cc(C(=O)NCCc2cc(O)nc(C)n2)ccn1`, the “% Inhibition” value stood at 8% and the Z score is given as -0.75.

On to `NS(=O)(=O)c1ccc(N[C@H]2CCN(c3ccc(F)c(Cl)c3)C2)nc1`, for which the “% Inhibition” value is -8% and the Z score stood at 1.04.

For the compound `Cn1nccc1CNC(CO)CC(O)C(C)(C)C` (stereo unspecified), the “% Inhibition” value is on record as -3% and the Z score turned out to be 0.38.

Take `COCCN(C1CCCC1)S(=O)(=O)c1cc(C)sc1C`: the “% Inhibition” value is given as -10% and the Z score is 0.85.

For `CN(Cc1nc(-c2ccncc2)no1)C[C@H]1CCOC1`, the “% Inhibition” value is reported as -3% and the Z score turned out to be 0.6.

For the compound `O=C(O)[C@H]1CCCCN1Cc1cc2ccccc2o1`, the “% Inhibition” value is on record as -11% and the Z score was found to be 2.27.

Consider `COC(=O)c1ccc(C(=O)N2CC[C@H](c3ncon3)C2)cc1`, for which the “% Inhibition” value came to 0% and the Z score was -0.03.

Consider `CCCN(Cc1nc(-c2ccccc2F)no1)C[C@H]1CCCCO1`, for which the “% Inhibition” value is 2% and the Z score was -0.32.

Consider `O=C(Nc1nc2cc3c(cc2s1)OCCO3)c1ccc(S(=O)(=O)N2CCCC2)cc1`, for which the “% Inhibition” value was -12% and the Z score is recorded as 2.3.

In the case of `COc1ccc(NS(=O)(=O)c2ccc(NC(=O)c3ccccc3)cc2)nn1`, the “% Inhibition” value is given as -14% and the Z score was 1.88.

Turning to `O=C(Nc1nccs1)c1ccc(O[C@H]2CCOC2)nc1`, the “% Inhibition” value is given as -14% and the Z score is given as 2.58.

`COCc1cc(CN(C)c2cc(N(C)C)ncn2)n[nH]1`: the “% Inhibition” value is listed as -5% and the Z score is reported as 1.06.

As for `CN(C)[C@@H](CNC(=O)C(=O)Nc1cccc(C(F)(F)F)c1)c1ccc2c(c1)CCO2`, the “% Inhibition” value is on record as -5% and the Z score came to 0.75.

Consider `CN1CCC(N2CCN(Cc3nc4c(s3)CCCC4)C[C@@H]2CCO)CC1`, for which the “% Inhibition” value is reported as -12% and the Z score was 1.56.

As to `CN1CCO[C@@H](CN(CC2CC2)C(=O)Cc2ccccc2O)C1`, the “% Inhibition” value is reported as -11% and the Z score was 1.49.
